# Some of the results follow.
# T1: UNK ZnF1-3 (human, UniProt Q9C0B0 31-174)
# T1 sequence: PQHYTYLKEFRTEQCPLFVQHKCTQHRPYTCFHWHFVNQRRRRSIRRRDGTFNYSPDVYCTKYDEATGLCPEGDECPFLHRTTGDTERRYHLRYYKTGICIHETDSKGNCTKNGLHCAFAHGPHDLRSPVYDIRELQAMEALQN
# B1: chr7:90019433:90019434:+_ENSMUSG00000057706_ENSMUST00000082237|mus_hu|mus_mus_mus_hu_True|88_88 (ssRNA)
# RNA: GGGAGUUCUACAGUCCGACGAUCAAAUAAUACAGUGUUCUUUGCCAAAGGCCAUACCUAAAAUAAAAAGAUUUAACCCAGCUACAAAAAAGUUCACUGAACUUAAAUUAAAAUACUUGUAAACAUCUUUGCAAUAUGAAAUAUCAACAGAGGAUUGAGCAUCA
# B2: chr4:144460044:144460045:+_ENSG00000153147_ENST00000283131|hu_mus|hu_hu_hu_mus_False|8_58 (ssRNA)
# RNA: GGGAGUUCUACAGUCCGACGAUCACGGUCCAUAGCCUGAAGAUCAACUUGCGGAUUCCAAUCUGAGUCAUAUAAAAUUACUACAUCAGCAGUUGCAAGAUUGAUGCCCAGACCACCAGCACGUGUGCUUAACAUGAAUACAAACAACAGAGGAUUGAGCAUCA
# B3: 122048412_122049300_2222_CDS_ENSMUSG00000031835_ENSMUST00000081381|mouse|control|control (ssRNA)
# RNA: GGGAGUUCUACAGUCCGACGAUCGACUCUCUUGCUCCGAGGAGGGGUGGGAAUGAUCUUCACCUUGAUGGGCAGCUUCACGGUGGAAGUGUGCUCCGCACCACUGUGUAACUCUGUCUCUGCUGGGGACGCCACUGUGAUCAUCAACAGAGGAUUGAGCAUCA
# B4: chr5:73476710:73476711:-_ENSMUSG00000070733_ENSMUST00000101127|mus_mus|FALSE|FALSE (ssRNA)
# RNA: GGGAGUUCUACAGUCCGACGAUCAGAAUAGAGAUGUGGCAGCGGGGACAGCUGACUGAGGACUCCAUCCGUUCUCUGAACCUCCAGUUUGUGAGCAUAGCGAAACAUCUUCGGCUCCAGGAUCUGCAAGAGUUGCAUAGCAACCAACAGAGGAUUGAGCAUCA
# B5: chr8:3604753:3604754:+_ENSMUSG00000044433_ENSMUST00000057028|mus_mus|FALSE|FALSE (ssRNA)
# RNA: GGGAGUUCUACAGUCCGACGAUCGGGUGGUGUGAGUACCCUUGUCAAAGGUGCAAGCUUCAGCUCUGCCGGCCUUGCAUGUUUUGGACUACGGGGUGUUGGGCUGGGGCCUGGCCCAGGGCUGCGUCGGGCAGCUGGGGCACGCAACAGAGGAUUGAGCAUCA
# B6: chr11:46405157:46405158:+_ENSG00000110492_ENST00000395566|hu_hu|FALSE|FALSE (ssRNA)
# RNA: GGGAGUUCUACAGUCCGACGAUCCACUUAGGGGUGGGGCUGGGGAGUGAGAGGGACAAGGCAGGGCAUGAUUGAUUAAAGCUAACGAGCAGACAGAAGGCACUGGUGGGUCACAUCUCGGGCCUGGGAGAGGGAGGGCGUGGGCAACAGAGGAUUGAGCAUCA
# B7: chr1:85784824:85784825:-_ENSG00000153904_ENST00000284031|hu_hu|FALSE|FALSE (ssRNA)
# RNA: GGGAGUUCUACAGUCCGACGAUCAGUAUCUUUCCUUUUCAAAAAUAACAUUAUGCUAAUGAGAACAUCAAAGAAGUAAUACUAUGCUGCAAGUAAUUUAGGUUUUCACAUCAUCAAUCAUAUAGGGAGUCCAAAGAAGCCAGCCAACAGAGGAUUGAGCAUCA
# B8: chr10:7421922:7421923:+_ENSMUSG00000040021_ENSMUST00000165952|mus_mus|motif|central (ssRNA)
# RNA: GGGAGUUCUACAGUCCGACGAUCAUCAGACUGACCACCACCAUUCUGAACUCCAGGUCGCCCUGGUGUAAAGUUAAAUUUGCGGGUACUCUGCAUGAUGAUGGGUUGUCUACCAACUGGAACAGAACUAAUGGCCCUCUGAGCCAACAGAGGAUUGAGCAUCA
# B9: chr12:16043544:16043545:+_ENSG00000023734_ENST00000419869|hu_hu|motif|central (ssRNA)
# RNA: GGGAGUUCUACAGUCCGACGAUCUUUGUUCAAGUCAUAUAUGCGUAACAGUUUAUCCUGUCCCCCGGUUAACAAAUAAUUACGGUCCUGCGUGAAAUCCACAGUCUUGACAAUGUGUUUAUGAGCCAGGGUCAUCAAUUCAUCCAACAGAGGAUUGAGCAUCA
# B10: chr2:202488911:202488912:-_ENSG00000155755_ENST00000286196|hu_mus|hu_hu_hu_mus_False|48_58 (ssRNA)
# RNA: GGGAGUUCUACAGUCCGACGAUCAUUGAAACAUUUUUCAUAAUCUCCAGUAGCAUUUCAGCAUUAUGUAACAAAAGAUCUAUUACAAAUACACAUGUCUUAUAAAAAUACACUUAAAAACACGAGUGGGGAGCGCAGGCGCCACAACAGAGGAUUGAGCAUCA
# B11: chr6:52679276:52679277:+_ENSMUSG00000004535_ENSMUST00000080723|mus_mus|motif|central (ssRNA)
# RNA: GGGAGUUCUACAGUCCGACGAUCGUAACAGAACUGAUAAAAUUCUCCAUCAUCAUUUGGAAGGUAAUAUCCUUGAAAUGCGGGUACACAAUUGACUGUUGAUCCUUCCACAUAAUGUUCAGGCAUAGGAGACCAUAAAAAUGUCAACAGAGGAUUGAGCAUCA
# B12: chr10:32150518:32150519:-_ENSG00000165322_ENST00000344936|hu_hu|FALSE|FALSE (ssRNA)
# RNA: GGGAGUUCUACAGUCCGACGAUCUCCAUUAAUCUGAAUUGCCGGGCUCCCAGGAAGUGGGGGAAGAGCAGACUGGGAUAUUUUCAGUUCUUGAAGGUUAGCAUAGACAGGAGAAUCUGGCCUUCCUUGAUUUGGAGGUGUGGUCAACAGAGGAUUGAGCAUCA
# B13: 73960316_73968448_362_CDS_ENSMUSG00000022110_ENSMUST00000160507|mouse|control|control (ssRNA)
# RNA: GGGAGUUCUACAGUCCGACGAUCCUUUGAUCCUAAUUUUUUGGCAAUUGCGUAAGCUUCAUCGGAUGACUUUGCCACGAAGCCUUUGGGAACAGAGACACCCGCUUCCUGCAAUAACUCCAUACUCAAGUAUUCAUGCAGCGACAACAGAGGAUUGAGCAUCA
# B14: chrX:69798090:69798091:-_ENSMUSG00000031343_ENSMUST00000055966|mus_mus|mus_mus_mus_hu_False|38_78 (ssRNA)
# RNA: GGGAGUUCUACAGUCCGACGAUCAAGUCCCCGGGUUCUUGUCGUCUUGAUUCCCCUUGGCUAGUGGUUCCAGGGAGAAUAUUAAUCAGGAAAAGAAGUACAACUCUGGUCAUGUAACAGUGACUUGUUUGUGUGAUUAUCAUCCAACAGAGGAUUGAGCAUCA
# B15: chr19:8913615:8913616:-_ENSMUSG00000071658_ENSMUST00000096259|mus_hu|mus_mus_mus_hu_False|8_88 (ssRNA)
# RNA: GGGAGUUCUACAGUCCGACGAUCAGGGUACCAAAACCUUCUGCCUGAGAUAGGUGCCCCACCCAGUAGGGAGUUGCAGCUGAAAGUAUCUGAUGCAGAAGCAGUGACUAUACGAAAGGAGGCCCCUGAUGCUCAGAAGGCCAGCAACAGAGGAUUGAGCAUCA
# B16: chr11:77340908:77340909:-_ENSG00000074201_ENST00000525064|hu_hu|hu_hu_hu_mus_True|48_98 (ssRNA)
# RNA: GGGAGUUCUACAGUCCGACGAUCGUUUGGAUCCCUGGAUAAUGCAUGUAAACUAAUGGUGGGGUAUUCCAGUGAGAAUCCUAAUCCAGAGCCAUCUAACCAGGACAGGCGGCUCUCCGCGAUGUAAAGCGUGCCGGUGCCGAGCAACAGAGGAUUGAGCAUCA
# B17: chr12:25693320:25693321:+_ENSMUSG00000036333_ENSMUST00000066652|mus_mus|FALSE|FALSE (ssRNA)
# RNA: GGGAGUUCUACAGUCCGACGAUCGUCAACUCGGAAUAUAGCCAAAAGAGUAAUUCCAGCAAUAAUGCAGCCAACAAUAAAAAGAAAGAUUAUAAAAGACGGGAGACAGCAUGUUUUUUUCCAUUUCUUUUUACCCUGAGAAUCCAACAGAGGAUUGAGCAUCA
# B18: chr11:46405157:46405158:+_ENSG00000110492_ENST00000395566|hu_hu|hu_hu_hu_mus_False|48_88 (ssRNA)
# RNA: GGGAGUUCUACAGUCCGACGAUCCCCUCCCCACUUUGGGCACUUGGUGAGAGGGACAGAGGACAGGCGUGAUUGACAGAGCUGACAAGCAGACAGAAGGCACUGGUGGGUUAUAUCUUGGGCCUGUGGGAGAGGAGGGCUCCGCAACAGAGGAUUGAGCAUCA
# B19: chr6:40426449:40426450:+_ENSMUSG00000029911_ENSMUST00000121360|perfect_dup|motif|central (ssRNA)
# RNA: GGGAGUUCUACAGUCCGACGAUCGACAUCACCCAGUUGGUAAACUUCACUAUCCCCUGAUCGCCACAUCUCAUUAGUUGCGGGAGAAAAUAUUGUGACUGGAUUUUUUCCUUCCACCUGUCUCAAGACAGGGUCCUGACCCACCAACAGAGGAUUGAGCAUCA
# B20: chr10:33190432:33190433:-_ENSG00000150093_ENST00000302278|hu_mus|hu_hu_hu_mus_True|38_88 (ssRNA)
# RNA: GGGAGUUCUACAGUCCGACGAUCUACAUUUUCCAAACCUGCAUGUGAGUAAAACCAUGGCCACAGAGCCCCAAAACUACCCUACUGUGACUAAGAUAAUUGCUACUUGAGCUUGGUGUUGCAAAAUCCGCCUGAGUAGGAUUCCAACAGAGGAUUGAGCAUCA
# B21: chr14:102368134:102368135:+_ENSG00000078304_ENST00000445439|hu_mus|motif|central (ssRNA)
# RNA: GGGAGUUCUACAGUCCGACGAUCAAGAGGCUCCAUGAUCUUCACAAACUCUGAUGGUUCAAUUACAUCUAAAAUUUCUUCGGAUUCAUUUAAGAACAUUACUUCUUUUGGACUGUGAGUCUUUGGCCAGUAUUUGAGAAGUGCCAACAGAGGAUUGAGCAUCA
# B22: chr4:140556289:140556290:+_ENSMUSG00000036622_ENSMUST00000037055|mus_mus|mus_mus_mus_hu_False|68_88 (ssRNA)
# RNA: GGGAGUUCUACAGUCCGACGAUCGAUGGAGCUCACCAGGCCCCCUUUGGCUGUGCAGAACCCUGUGCGAGUCACCACUGCCAGGACGUGCGGUCCCACAUAGGCCCGGGCCUGCAAGAUGAGGGUCCCGCAGAAGAGUGUGUGCAACAGAGGAUUGAGCAUCA
# Molecular target: T1, UNK ZnF1-3
# Assay: nsRBNS (natural sequence RNA bind-n-seq); RBNS binding buffer (assumed for nsRBNS): 25 mM Tris pH 7.5, 150 mM KCl, 3 mM MgCl2, 0.01% Triton X-100, 500 ug/ml BSA, 20 U/ml SUPERase-In, 4 C; UNK is unkempt and MSI1 is Musashi-1; names of the RNAs are library labels; protein concentration not given here; high values mean tight binding
row,Binder,binding signal [enrichment R]
1,B1,1.53
2,B2,1.32
3,B3,0.871
4,B4,2.14
5,B5,0.744
6,B6,2.63
7,B7,2.56
8,B8,1.41
9,B9,1.1
10,B10,1.03
11,B11,0.811
12,B12,1.46
13,B13,0.722
14,B14,0.781
15,B15,0.988
16,B16,1.54
17,B17,1.94
18,B18,2.9
19,B19,0.941
20,B20,0.923
21,B21,0.747
22,B22,1.15

# Reference: publication PMC12136788
